Data from PubChem BioAssay AID485313 (National Center for Advancing Translational Sciences (NCATS), 2010).
Screen size: about 320,000 compounds; about 7,600 (2.4%) were called active. The shares of active, inactive and inconclusive entries below differ from those in the screen. Calls follow the shape of the dose curve; as a rule, active = well fitted activation curve with a large enough effect; inconclusive = small, poorly fitted or top-dose-only effect; inactive = no such curve, though single readings can be large or run the other way. Potencies of inconclusive entries are doubtful fits and often do not repeat.

Assay: qHTS Assay for NPC1 Promoter Activators; also: nearly all actives have a fitted effect of over 60% in size;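 as to activation: reporter is driven by a mutant NPC1 promoter; % of control where 0% means no effect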
Details: Huh7 NPC1 promoter luciferase reporter, 24 h; series mostly up to 9.22 µM; activation: at the top concentration
In short: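 Stable NPC1-promoter luciferase Huh7 line; cpd (DMSO) 24 h, 37 °C, 5% CO2; Amplite luciferase reagent 10 min RT; luminescence readout. qHTS format.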
Potency is read from the fitted curve at half-maximal effect; tags tell the direction and shape of the fitted curve.

Potency, active:
CCC(=O)NCCc1nc2cc(NC(=O)Nc3ccccc3)ccc2n1C 1.12 µM
CCOC(=O)c1ccc(NC(=O)Cc2cccs2)cc1 3.55 µM
Cc1cc(C(=O)NC2=NCCS2)cs1 2.51 µM
CCN(C(=O)COC(=O)c1cc(-c2ccc3cc(OC)ccc3c2)nc2ccccc12)C1CCS(=O)(=O)C1 (stereo unspecified) 0.891 µM
Cn1cccc1CNC(=O)Nc1ccc(Cl)c(Cl)c1 3.98 µM
COc1cccc(C2=NOC(C(=O)N3CCOCC3)C2)c1 (stereo unspecified) 3.55 µM
Cc1ccc(Oc2ccc(NC(=O)c3ccco3)cc2)cc1 3.16 µM
Cc1nn(-c2ccccn2)c2c1-c1nc(N)ncc1CC2 3.55 µM
COc1cccc(OCCOc2cccc(/C=N/n3cnnc3)c2)c1 3.98 µM
O=C(c1cc2cc(F)ccc2[nH]1)N1CCc2ccccc21 3.98 µM

Potency, inconclusive:
Cc1nn(-c2ccccc2Cl)c(Cl)c1/C=N/Nc1cccc(C(=O)O)c1 0.0794 µM [activator, full curve, poor fit]
Brc1ccc(CNc2ccc3ncccc3c2)cc1 0.891 µM [activator, full curve]
O=C(CN1CCCCCC1)Nc1ccc(Cl)cc1F 0.708 µM [activator, single point]
COc1cc(C=O)ccc1OCc1ccccc1Br 3.55 µM [activator, partial curve]
S=C(NCc1ccco1)Nc1ccc2c(c1)OCCO2 3.16 µM [activator, single point]
Cc1cccnc1NC(=O)Nc1ccc(F)cc1 3.55 µM [activator, partial curve]
Oc1[nH]c2ccccc2c1C=Nc1ccc2c(c1)OCCO2 5.01 µM [activator, single point]
CS/C(N)=N/C(=S)Nc1cccc(Cl)c1 5.62 µM [activator, single point]
Cc1ccc(C(=O)NC(=S)Nc2ccccc2C)cc1 3.55 µM [activator, single point]
CCCOc1ccc(/C=N/Nc2ccccc2[N+](=O)[O-])c(O)c1 0.316 µM [activator, partial curve]
CCC1CCCCN1C(=O)CSc1nnc(-c2cccs2)o1 (stereo unspecified) 2.24 µM [activator, partial curve]
CC(=O)Oc1ccc2cc(-c3nc4ccccc4n3C)c(=O)oc2c1 3.55 µM [activator, partial curve]
COc1ccc2nc(NC(=O)Nc3ccccc3)sc2c1 5.62 µM [activator, single point]
O=C(Nc1ccc(Br)cc1)N1CCCCC1 3.16 µM [activator, single point]
CC(=O)Oc1ccc(C(=O)Cc2ccc3ccccc3n2)c(O)c1C 3.98 µM [activator, single point]
COc1cc(NC2CCCCC2O)c2nc(-c3ccc(Cl)cc3)ccc2c1 (stereo unspecified) 3.55 µM [activator, partial curve]
Nc1ccc(OCCc2ccccc2)cc1 3.55 µM [activator, partial curve]
O=C(Nc1ccnc(=O)[nH]1)c1sc2ccccc2c1Cl 2.51 µM [activator, partial curve]
COc1cc2ccccc2cc1C(=O)NC(=S)Nc1cccc(C(=O)O)c1 5.62 µM [activator, single point]
COC(=O)c1ccc(CC(=O)c2nc3ccccc3s2)cc1 3.55 µM [activator, partial curve]
CC(=O)Nc1cccc(CCc2nc3ccccc3[nH]2)c1 3.16 µM [activator, single point]
CCc1cc(=O)oc2cc(OCc3ccc(C(=O)O)o3)ccc12 1.58 µM [activator, partial curve]
O=C(NCc1csc(-c2cccs2)n1)C1CCCCC1 3.55 µM [activator, partial curve]
Cc1nn(C)cc1/C=N/NC(=S)Nc1ccccc1 2.82 µM [activator, partial curve]
O=C(Nc1nnc(C2CC2)s1)C1Cc2ccccc2CN1S(=O)(=O)c1ccccc1F (stereo unspecified) 5.62 µM [activator, single point]
Cc1cccc(C(C(=O)NC2CCCC2)N(Cc2cccnc2)C(=O)c2csnn2)c1 (stereo unspecified) 5.62 µM [activator, single point]
Nc1c(C(=O)c2ccc(Br)s2)oc2ccccc12 3.55 µM [activator, partial curve]
O=C(N/N=C/c1ccc2c(c1)OCO2)C(=O)Nc1ccccc1 3.55 µM [activator, partial curve]
COc1ccc(N2C(=O)c3ccccc3NC2c2ccc(OC)c(CSc3ccccn3)c2)cc1 (stereo unspecified) 2.82 µM [activator, partial curve]
CC(=O)N1CCc2cc(N=NC3=C(O)CCCC3=O)ccc21 3.55 µM [activator, single point]
CCNc1nc(NCC)nc(C(=O)Nc2ccccc2)n1 2.24 µM [activator, partial curve]
Cc1cc([N+](=O)[O-])ccc1NC(=O)c1cc2ccccc2o1 3.16 µM [activator, partial curve]
O=C(/C=C\c1ccc(-c2cccc([N+](=O)[O-])c2)o1)N1CCOCC1 5.62 µM [activator, single point]
COc1ccc(N2Cc3ccc(C(=O)N/N=C\c4ccc(O)cc4O)cc3C2)cc1 3.16 µM [activator, partial curve, poor fit]
CCOc1ccc(C(=O)Nc2cccc(SC)c2)cc1 5.01 µM [activator, single point]
O=C(OCC(=O)N1CCCc2ccccc21)c1ccccc1[N+](=O)[O-] 3.55 µM [activator, partial curve]
Cc1ccc(NC(=O)N2CCCCCC2)cc1 3.16 µM [activator, partial curve]
O=c1[nH]c(-c2ccccn2)nc2ccccc12 3.98 µM [activator, partial curve]
COc1cccc(OC)c1C(=O)Nc1cccc(-c2ccc(N3CCOCC3)nn2)c1 3.98 µM [activator, partial curve]
Cn1c(=O)c(C(=O)NCc2ccccc2Cl)c(O)c2ccccc21 3.16 µM [activator, single point]
CCSc1ncc(/C=N/Nc2ccc(F)cc2)n1C 3.55 µM [activator, single point]
Oc1cccc2ccc(/C=C/c3cccs3)nc12 3.55 µM [activator, partial curve]
CCCCC(=O)N1CCN(c2nc3ccc(Cl)cc3s2)CC1 0.891 µM [activator, full curve, poor fit]
Nc1nc(CSc2ccccc2)nc(N2CCCCC2)n1 3.55 µM [activator, single point]
COc1ccc(NC(=O)c2ccccc2)c([N+](=O)[O-])c1 3.55 µM [activator, single point]

activation, inactive:
CN(C)c1ccc(S(=O)(=O)NCC(=O)N2CCN(c3ccccc3)CC2)cc1[N+](=O)[O-] 1.27%
COc1cc(/C=N/NC(=S)Nc2cccc(S(=O)(=O)N(C)C)c2)cc(OC)c1O -3.45%
Cc1nn(C(C)(C)C)c(N)c1-c1ccccc1 0.369%
CN(CC(=O)Nc1ccc(Cl)c(C(F)(F)F)c1)C(=O)c1cc(-c2ccncc2)nc2ccccc12 -2.92%
COC(=O)c1ccc(/C=C2\SC(=S)N(CCCC(=O)NCCCN3CCOCC3)C2=O)cc1 -9.69%
CC(NCC(=O)Nc1cc(S(=O)(=O)N2CCOCC2)ccc1N1CCOCC1)c1ccco1 (stereo unspecified) -1.03%
Oc1ccc(Br)cc1-c1cc(-c2ccc(Cl)cc2)n[nH]1 -3.27%
COC(=O)c1cc(NC(=O)c2ccoc2C)cc(C(=O)OC)c1 -3.88%
Cc1nn(CC(=O)N2CCN(S(=O)(=O)c3ccccc3)CC2)c(C)c1[N+](=O)[O-] 0.649%
CCc1ccc(N=C2NC(=O)/C(=C/c3ccc(OCC(=O)O)c(OC)c3)S2)cc1 -1.37%
COC(=O)c1ccc(OCC(O)CNCC(c2ccc(OC)cc2)N(C)C)c(OC)c1 (stereo unspecified) 0.839%
CCc1nnc(NC(=O)c2ccc3nc(CC)c(CC)nc3c2)s1 13.4%
COc1cc(CN2CC(=O)N(c3ccc(C)c(C)c3)C2=S)cc(OC)c1OC -1.13%
CC1(C)CC(=O)c2cc(OCC(=O)O)ccc2O1 -2.75%
COc1ccccc1C(=O)NNC(=O)c1ccccc1Br 7.84%
COC(=O)c1sccc1NC(=O)Nc1ccc(F)cc1 0.505%
O=C(N/N=C/c1cc2c(cc1Br)OCO2)c1cc2ccccc2o1 22.2%
COc1ccc(Cl)cc1C(=O)NNC(=S)NC(=O)c1cc(-c2ccc(Cl)cc2)nc2ccccc12 -7.02%
CCN(CC)c1ccc(C(=O)NNC(=O)CCl)cc1 -14.1%
COc1ccccc1CCC(=O)NC1CCCN(c2ccc(C(F)(F)F)cn2)C1 (stereo unspecified) 1.09%
CN(CC(=O)Nc1cccc(S(=O)(=O)NC2=NCCC2)c1)Cc1cccc(F)c1 -7.21%
